Laboratory results from US4895589A, “Heterocyclic compounds” (Imperial Chemical Industries PLC, priority 1985, dated 1990).
At least one read-out could not be matched to a standard name with certainty.

Tests used:
[1] = system: Apple; assay: Whole Plant Screen (2), apple; format: in vivo, Apple (Red Delicious); settings: 4000 ppm
Experimental: After 2-6 weeks in the glasshouse, depending on the time of year, the plants were visually assessed for morphological characteristics. Formulation blanks were used as controls to assess the plants.
(§1) Compound numbers 1, 5 and 7 (of the present invention) were tested against compounds A, B, C and D (compound Nos. 12, 2, 24 and 50 of Table 1 EP No. 0052424) on whole plant screen (2). The compounds were tested of plant growth regulator activity against five species and for various growth effects relevant to plant growth regulation. The structures are set out in FIG. 1.
(§2) The plant species used in this screen are presented in Table XII with the leaf stage at which they were sprayed Each chemical was applied at 4000 ppm (4 kg/ha in a 1000 l/ha field volume) using a tracksprayer and a SS8004E (Teejet) nozzle. […]

[2] = system: Barley; assay: Whole Plant Screen (2), barley; format: in vivo, Barley (Atem); settings: BR, 4000 ppm
Experimental: as §1, §2

[3] = system: Wheat; assay: Whole Plant Screen (2), wheat; format: in vivo, Wheat (Timmo); settings: WW
Experimental: Compound numbers 12-13, 16-17 and 19-20 were tested on an alternative whole plant screen (2). The compounds were tested for plant growth regulator activity against five species for various growth effects relevant to plant growth regulation.
The plant species used in this screen are presented in Table IV with the leaf stage at which they were sprayed. Each chemical was applied at 4000 ppm (4 kg/ha in a 1000 l/ha field volume) using a tracksprayer and a SS8004E (Teejet) nozzle. […]
After 2-6 weeks in the glasshouse, depending on the time of year, the plants were visually assessed for morphological characteristics. Formulation blanks were used as controls to assess the plants. […]

[4] = 4000 ppm, side-by-side, Table XIII

Row | SMILES | I = Interligular or internodal length reduction ([1]; AP, side-by-side, Table XIII) | R = Retardation ([1]; AP, side-by-side, Table XIII) | R = Retardation ([2]; side-by-side, Table XIII) | I = Interligular or internodal length reduction [3, 4] | R = Retardation [3, 4] | R = Retardation ([2]; 2-6 weeks, Table V) | I = Interligular or internodal length reduction ([3]; 4000 ppm, 2-6 weeks, Table V) | R = Retardation ([3]; 4000 ppm, 2-6 weeks, Table V) | further results
1 | CCCC#CC(Cn1cncn1)(OC)C(C)(C)C (centres unmarked) [Compound 12] | – | – | – | – | – | – | – | – | I = Interligular or internodal length reduction ([1]; Ap, 2-6 weeks, Table V): 1 (10-30%); R = Retardation ([1]; Ap, 2-6 weeks, Table V): 1 (10-30%)
2 | CC(C)CC#CC(O)(Cn1cncn1)C(C)(C)C (centres unmarked) [Compound 7, 2,2-dimethyl-3-hydroxy-3-(4-methyl-pent-1-yne-1-yl)-4-(1,2,4-triazol-1-yl)-butane] | 1 (10-30%) | 1 (10-30%) | 2 (31-60%) | 3 (61-100%) | 2 (31-60%) | – | – | – | –
3 | CCCCC#CC(O)(Cn1cncn1)C(C)(C)CF (centres unmarked) [Compound 17, 2,2-dimethyl-1-fluoro-3-hydroxy-3-(hex-1-yne-1-yl)-4-(1,2,4-triazole-1-yl)-butane] | – | – | – | – | – | 2 (31-60%) | 2 (31-60%) | 2 (31-60%) | I = Interligular or internodal length reduction ([1]; Ap, 2-6 weeks, Table V): 2 (31-60%); R = Retardation ([1]; Ap, 2-6 weeks, Table V): 2 (31-60%)
4 | CC(C)(C)C(O)(C#CCC1CC1)Cn1cncn1 (centres unmarked) [Compound 16, 2,2-Dimethyl-3-hydroxy-3-(3-cyclopropyl-prop-1-yne-lyl)-4-(1,2,4-triazol-1-yl)-butane] | – | – | – | – | – | 2 (31-60%) | 3 (61-100%) | 2 (31-60%) | I = Interligular or internodal length reduction ([1]; Ap, 2-6 weeks, Table V): 3 (61-100%); R = Retardation ([1]; Ap, 2-6 weeks, Table V): 3 (61-100%)
5 | CC(C)(C)C(O)(C#CCCCCl)Cn1cncn1 (centres unmarked) [Compound 13] | – | – | – | – | – | 1 (10-30%) | 3 (61-100%) | 1 (10-30%) | –
6 | CCCCC#CC(O)(Cn1cncn1)C(C)(C)C (centres unmarked) [Compound 1, 2,2-dimethyl-3-hydroxy-3-(hex-1-yne-1-yl)-4-(1,2,4-triazol-1-yl)-butane] | 3 (61-100%) | 3 (61-100%) | 2 (31-60%) | 3 (61-100%) | 2 (31-60%) | – | – | – | –
7 | CC(C)(C)C#CC(O)(Cn1cncn1)C(C)(C)C (centres unmarked) [Compound 5, 2,2-dimethyl-3-hydroxy-3-(3,3-dimethyl-but-1-yne-1-yl)-4-(1,2,4-triazol-1-yl)-butane] | 3 (61-100%) | 3 (61-100%) | – | 3 (61-100%) | 2 (31-60%) | – | – | – | –
8 | CC(C)(C)C=CC(O)(Cn1cncn1)C(C)(C)C (centres unmarked) [A, reference compound] | 1 (10-30%) | 1 (10-30%) | 1 (10-30%) | 2 (31-60%) | 2 (31-60%) | – | – | – | –
9 | CCCC#CC(O)(Cn1cncn1)C(C)(C)CCl (centres unmarked) [Compound 19] | – | – | – | – | – | – | – | – | I = Interligular or internodal length reduction ([3]; 1000 ppm, 2-6 weeks, Table V): 1 (10-30%); R = Retardation ([3]; 1000 ppm, 2-6 weeks, Table V): 1 (10-30%)
10 | CC(C)(C)C(O)(C=Cc1ccc(Cl)cc1)Cn1cncn1 (centres unmarked) [B, reference compound] | 1 (10-30%) | 1 (10-30%) | 1 (10-30%) | 3 (61-100%) | 2 (31-60%) | – | – | – | –
11 | CCCCCC#CC(O)(Cn1cncn1)C(C)(C)CF (centres unmarked) [Compound 20] | – | – | – | – | – | 1 (10-30%) | 3 (61-100%) | 2 (31-60%) | –
